In article PMC9911399, “Two distinct binding modes provide the RNA-binding protein RbFox with extraordinary sequence specificity”:
Residue numbers refer to the chain shown, from its start. The list shows a part of the results.

B1: CCUGAUU (DNA:RNA)
RNA: GGGAGACCGGAAUUCAGAUUGUCCCCUGAUUUUAAAUCCCGUCGUAGCCACCA
DNA 1: CAATCTGAATTCCGGTCTCCC
DNA 2: TGGTGGCTACGACGGGATT
B2: GAGGCCU (DNA:RNA)
RNA: B1 RNA with C25G, C26A, U27G, A29C, U30C
DNA 1: CAATCTGAATTCCGGTCTCCC
DNA 2: TGGTGGCTACGACGGGATT
B3: AGGAUAC (DNA:RNA)
RNA: GGGAGACCGGAAUUCAGAUUGUCCAGGAUACUUAAAUCCCGUCGUAGCCACCA
DNA 1: CAATCTGAATTCCGGTCTCCC
DNA 2: TGGTGGCTACGACGGGATT
B4: CGUUAUG (DNA:RNA)
RNA: B1 RNA with C26G, G28U, U31G
DNA 1: CAATCTGAATTCCGGTCTCCC
DNA 2: TGGTGGCTACGACGGGATT
B5: UCUCAGG (DNA:RNA)
RNA: B1 RNA with C25U, G28C, U30G, U31G
DNA 1: CAATCTGAATTCCGGTCTCCC
DNA 2: TGGTGGCTACGACGGGATT
B6: GAUACAG (DNA:RNA)
RNA: B3 RNA with A25G, G26A, G27U, U29C, C31G
DNA 1: CAATCTGAATTCCGGTCTCCC
DNA 2: TGGTGGCTACGACGGGATT
B7: AGUAUCG (DNA:RNA)
RNA: B3 RNA with G27U, A30C, C31G
DNA 1: CAATCTGAATTCCGGTCTCCC
DNA 2: TGGTGGCTACGACGGGATT
B8: CAGGAGG (DNA:RNA)
RNA: B1 RNA with C26A, U27G, U30G, U31G
DNA 1: CAATCTGAATTCCGGTCTCCC
DNA 2: TGGTGGCTACGACGGGATT
B9: GGUAUGA (DNA:RNA)
RNA: B3 RNA with A25G, G27U, A30G, C31A
DNA 1: CAATCTGAATTCCGGTCTCCC
DNA 2: TGGTGGCTACGACGGGATT
B10: GUCCAAA (DNA:RNA)
RNA: B3 RNA with A25G, G26U, G27C, A28C, U29A, C31A
DNA 1: CAATCTGAATTCCGGTCTCCC
DNA 2: TGGTGGCTACGACGGGATT
B11: CGUCUAU (DNA:RNA)
RNA: B3 RNA with A25C, G27U, A28C, C31U
DNA 1: CAATCTGAATTCCGGTCTCCC
DNA 2: TGGTGGCTACGACGGGATT
B12: CCGUCCG (DNA:RNA)
RNA: B1 RNA with U27G, G28U, A29C, U30C, U31G
DNA 1: CAATCTGAATTCCGGTCTCCC
DNA 2: TGGTGGCTACGACGGGATT
B13: UAUGUUA (DNA:RNA)
RNA: B1 RNA with C25U, C26A, A29U, U31A
DNA 1: CAATCTGAATTCCGGTCTCCC
DNA 2: TGGTGGCTACGACGGGATT
B14: CUGUUCU (DNA:RNA)
RNA: B3 RNA with A25C, G26U, A28U, A30C, C31U
DNA 1: CAATCTGAATTCCGGTCTCCC
DNA 2: TGGTGGCTACGACGGGATT
B15: UCGCGCC (DNA:RNA)
RNA: B3 RNA with A25U, G26C, A28C, U29G, A30C
DNA 1: CAATCTGAATTCCGGTCTCCC
DNA 2: TGGTGGCTACGACGGGATT
B16: GGACGUA (DNA:RNA)
RNA: B3 RNA with A25G, G27A, A28C, U29G, A30U, C31A
DNA 1: CAATCTGAATTCCGGTCTCCC
DNA 2: TGGTGGCTACGACGGGATT
B17: AUAAAAG (DNA:RNA)
RNA: B3 RNA with G26U, G27A, U29A, C31G
DNA 1: CAATCTGAATTCCGGTCTCCC
DNA 2: TGGTGGCTACGACGGGATT
B18: AAACUUA (DNA:RNA)
RNA: B3 RNA with G26A, G27A, A28C, A30U, C31A
DNA 1: CAATCTGAATTCCGGTCTCCC
DNA 2: TGGTGGCTACGACGGGATT
B19: UAAGAAA (DNA:RNA)
RNA: B1 RNA with C25U, C26A, U27A, U30A, U31A
DNA 1: CAATCTGAATTCCGGTCTCCC
DNA 2: TGGTGGCTACGACGGGATT
B20: CCGCCGA (DNA:RNA)
RNA: B1 RNA with U27G, G28C, A29C, U30G, U31A
DNA 1: CAATCTGAATTCCGGTCTCCC
DNA 2: TGGTGGCTACGACGGGATT
B21: GGAGAAA (DNA:RNA)
RNA: B3 RNA with A25G, G27A, A28G, U29A, C31A
DNA 1: CAATCTGAATTCCGGTCTCCC
DNA 2: TGGTGGCTACGACGGGATT
B22: CAUGGGC (DNA:RNA)
RNA: B1 RNA with C26A, A29G, U30G, U31C
DNA 1: CAATCTGAATTCCGGTCTCCC
DNA 2: TGGTGGCTACGACGGGATT
B23: CUCAUAU (DNA:RNA)
RNA: B3 RNA with A25C, G26U, G27C, C31U
DNA 1: CAATCTGAATTCCGGTCTCCC
DNA 2: TGGTGGCTACGACGGGATT
B24: GCGCUUA (DNA:RNA)
RNA: B3 RNA with A25G, G26C, A28C, A30U, C31A
DNA 1: CAATCTGAATTCCGGTCTCCC
DNA 2: TGGTGGCTACGACGGGATT
B25: ACCUAGU (DNA:RNA)
RNA: B1 RNA with C25A, U27C, G28U, U30G
DNA 1: CAATCTGAATTCCGGTCTCCC
DNA 2: TGGTGGCTACGACGGGATT
B26: GACGGGG (DNA:RNA)
RNA: B1 RNA with C25G, C26A, U27C, A29G, U30G, U31G
DNA 1: CAATCTGAATTCCGGTCTCCC
DNA 2: TGGTGGCTACGACGGGATT
B27: CCGUGUG (DNA:RNA)
RNA: B1 RNA with U27G, G28U, A29G, U31G
DNA 1: CAATCTGAATTCCGGTCTCCC
DNA 2: TGGTGGCTACGACGGGATT
B28: UUUUUAU (DNA:RNA)
RNA: B3 RNA with A25U, G26U, G27U, A28U, C31U
DNA 1: CAATCTGAATTCCGGTCTCCC
DNA 2: TGGTGGCTACGACGGGATT
B29: UCGGCGC (DNA:RNA)
RNA: B3 RNA with A25U, G26C, A28G, U29C, A30G
DNA 1: CAATCTGAATTCCGGTCTCCC
DNA 2: TGGTGGCTACGACGGGATT
B30: ACUGGUG (DNA:RNA)
RNA: B1 RNA with C25A, A29G, U31G
DNA 1: CAATCTGAATTCCGGTCTCCC
DNA 2: TGGTGGCTACGACGGGATT
B31: AUCUGGU (DNA:RNA)
RNA: B3 RNA with G26U, G27C, A28U, U29G, A30G, C31U
DNA 1: CAATCTGAATTCCGGTCTCCC
DNA 2: TGGTGGCTACGACGGGATT

biological target: T1, RBFOX1 RRM (Homo sapiens, UniProt Q9NWB1 109-208); assay: EMSA; HiTS-Eq, 1 nM pool, 10 min; buffer printed only for the single-RNA assays: 10 mM Tris pH 7.5, 150 mM NaCl, 3.4 mM EDTA, 0.001% NP-40, 30 C; conditions: tags: His6 N-terminal (pET28a); label: 5' 32P
T1 sequence: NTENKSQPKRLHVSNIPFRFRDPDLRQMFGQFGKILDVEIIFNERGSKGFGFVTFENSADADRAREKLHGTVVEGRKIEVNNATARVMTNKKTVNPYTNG
How it was run: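 These values rest on relative association constants, computed from read-count changes of each RNA species versus the control reaction and normalised to the cognate motif. Reads came from free RNA recovered by 8% native PAGE after purified RbFox RRM (wild type or mutant) at increasing concentrations was equilibrated for 10 min in 50 µL with 1 nM of a 5′-radiolabelled pool with 7 randomized nucleotides and DNA-annealed flanks.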

| Binder | binding signal |
| --- | --- |
| B1 | 0.00913 KA relative to UGCAUGU |
| B2 | 0.0209 KA relative to UGCAUGU |
| B3 | 0.0128 KA relative to UGCAUGU |
| B4 | 0.013 KA relative to UGCAUGU |
| B5 | 0.00927 KA relative to UGCAUGU |
| B6 | 0.00873 KA relative to UGCAUGU |
| B7 | 0.00649 KA relative to UGCAUGU |
| B8 | 0.00882 KA relative to UGCAUGU |
| B9 | 0.0175 KA relative to UGCAUGU |
| B10 | 0.00397 KA relative to UGCAUGU |
| B11 | 0.00694 KA relative to UGCAUGU |
| B12 | 0.0174 KA relative to UGCAUGU |
| B13 | 0.0151 KA relative to UGCAUGU |
| B14 | 0.0159 KA relative to UGCAUGU |
| B15 | 0.0112 KA relative to UGCAUGU |
| B16 | 0.0149 KA relative to UGCAUGU |

| Binder | binding signal |
| --- | --- |
| B17 | 0.00169 KA relative to UGCAUGU |
| B18 | 0.00313 KA relative to UGCAUGU |
| B19 | 0.00895 KA relative to UGCAUGU |
| B20 | 0.0089 KA relative to UGCAUGU |
| B21 | 0.0138 KA relative to UGCAUGU |
| B22 | 0.0064 KA relative to UGCAUGU |
| B23 | 0.00202 KA relative to UGCAUGU |
| B24 | 0.00615 KA relative to UGCAUGU |
| B25 | 0.00342 KA relative to UGCAUGU |
| B26 | 0.0168 KA relative to UGCAUGU |
| B27 | 0.0133 KA relative to UGCAUGU |
| B28 | 0.0088 KA relative to UGCAUGU |
| B29 | 0.0154 KA relative to UGCAUGU |
| B30 | 0.0226 KA relative to UGCAUGU |
| B31 | 0.0102 KA relative to UGCAUGU |
